Out of some 150,000 compounds screened, about 540 (0.36%) showed an effect of 50% or more. The list shows a part of the results.
tested on: Plasmodium falciparum; assay: Primary screen in NF54 nanoGlo assay, in single point, at 2uM, 72h; a lower Z score goes with more inhibition; type: functional, Erythrocyte; conditions: timepoint 72 hour

SMILES	% Inhibition	Z score
Cc1cccc(C(=O)N2CC(=O)N3CCc4ccccc4[C@@H]3C2)c1	0%	-0.01
O=C(NCCc1c[nH]cn1)[C@H]1CC(=O)N(c2[nH]nc3ccccc23)C1	-10%	1.17
O=C(Cc1ccon1)N1C[C@@H]2CCCN(C(=O)Cc3ccon3)[C@@H]2C1	-5%	0.75
O=C(c1noc(-c2cccc(F)c2)n1)N1CC(O)(C(F)F)C1	-4%	0.37
Cc1nnc(CN(C)Cc2cc(C(=O)O)ccc2Cl)s1	-7%	0.77
CC1(C)CN(C(=O)c2c[nH]nc2-c2ccoc2)C[C@H](CO)O1	-1%	0.2
O=C(N[C@H]1CCOC[C@@H]1Oc1ccccn1)c1ccc(CO)o1	11%	-2.01
C[C@H](O)Cc1cn(C2CCN(c3ncnc4[nH]cnc34)CC2)nn1	-9%	1.62
O=C(Nc1ccc(N2CCCC2)c2ncccc12)c1sccc1Cl	-3%	0.45
COC(=O)c1nc(NC(=O)C(C)C)sc1CCc1ccccc1	-4%	0.7
CCc1ccc(-c2cc(C(F)(F)F)on2)cc1S(=O)(=O)NCc1cccc(OC)c1	-8%	1.23
CN(CCc1ccc(Br)cc1)C(=O)C[C@H](N)C1CC1	-3%	0.35
O=C(Nc1cc(F)ccc1N1CCCCC1)N[C@@H](CCO)C1CC1	-9%	1.77
CC(C)(C)c1csc([C@@H]2CN(C(=O)Cc3cncs3)CCO2)n1	2%	-0.45
C[C@@]1(C(=O)NC2CCN(Cc3ccccc3)CC2)CCCCC(=O)N1	2%	-0.28
O=S1(=O)CCC[C@@]2(C(F)(F)F)CN(S(=O)(=O)C3CC3)C[C@H]21	-6%	0.72
Cc1cc(C(=O)N2CCN(C)C[C@@H]2C)c2n[nH]cc2c1	3%	-0.27
O=C(Nc1nncs1)[C@H]1CC(=O)N(c2n[nH]c3cccc(F)c23)C1	5%	-0.58
CCOc1cc([C@H]2NCCc3c2[nH]c2ccccc32)ccc1OCc1ccccc1Cl	1%	-0.06
CC(C)c1ccc([C@H]2C[C@@H](c3ccc(F)cc3)Nc3ncnn32)cc1	-2%	0.28
COc1ccccc1-c1nnc2c(C(=O)Nc3cccc(C)c3)cccn12	-8%	1.25

SMILES	% Inhibition	Z score
Cc1oc(-c2ccccc2)nc1CN1CC[S@@+]([O-])CC1(C)C	-10%	1.82
Cc1ccc(Cn2c([C@H]3CC(=O)Nc4n[nH]cc43)nc3ccccc32)cc1	-4%	0.56
C=CCn1c(-c2ccc(F)cc2)cn2cc(C(=O)N[C@@H](C)CO)nc2c1=O	-3%	0.65
COc1cc(CN(C)CCc2ccncc2)c(Cl)cc1OC(C)C	-14%	1.43
Cc1ccnc(NC(=O)c2ccc(OCC3CCOCC3)nc2)n1	-12%	2.24
CCn1cnnc1CN1CCC(N2C[C@H](COc3ccc(F)cc3)OCC2=O)CC1	-16%	1.69
COc1ccc(-c2c(C(=O)N3CCN(C)CC3)nn3c(C)cc(C)nc23)cc1S(=O)(=O)N1CCCCC1	-10%	1.71
COc1ccc2[nH]c([C@H](C)NC(=O)c3cccc4c3OCC4)nc2c1	7%	-0.88
Cc1cc(-c2nc(-c3ccccc3)nn2[C@H]2CCS(=O)(=O)C2)c(C)n1C	-10%	1.74
C=CCOc1cccc(NC(=O)N(C)C2c3cc(Cl)cc(Cl)c3CC2O)c1 (configuration not stated)	0%	-0.01
C=CCN(CC(=O)Nc1nc(-c2ccc(Cl)cc2)cn1-c1ccc(C)cc1)C(=O)c1ccccc1	9%	-1.1
Cc1c(Br)cc(C(=O)N[C@@H](CC(C)C)CN(C)C)c(=O)n1C	-1%	0.3
C[C@H]1C(=O)Nc2ccccc2CN1C(=O)Nc1cnnn1C	-10%	1.24
O=C(NCc1cccc(F)c1)N1CC[C@@]2(CCCN(CC3CC3)C2=O)C1	-12%	2.03
CC(C)(C)OC(=O)NCc1cccnc1NC(=O)Cc1ccoc1	10%	-1.94
Cc1c[nH]c(CNc2ncc(C(F)(F)F)cc2C)n1	-6%	1.04
C#CC1CCN(C(=O)c2cc(Cl)c3c(c2)OCCCO3)CC1	-11%	1.7
CCOC(=O)CC1(NCC(=O)N2CCC(C(=O)N3CCC[C@H](C)C3)CC2)CCCC1	-2%	0.41
CCCCn1nc(Cn2cncn2)nc1CN1CC[C@H](c2ccccc2)C1	-4%	0.67
C=C(C)CC(C)C(=O)N[C@@H]1CN(C(=O)OC(C)(C)C)C[C@@H]1O (some centres not stated)	-16%	2.08

Reference: ChEMBL document CHEMBL4888484, “Replenishing the malaria drug discovery pipeline: Screening and hit evaluation of the MMV Hit Generation Library 1 (HGL1) against asexual blood stage Plasmodium falciparum ,using a nano luciferase reporter read-out” (2022)
